Assay results taken from PMC6212790.
The other results are listed elsewhere or left out. At the low end of the ranking the order means little.

target: T1, GST-Rok-C97-191 (UniProt O34857); assay: protein binding microarray; conditions: Rok is a gene silencer of Bacillus subtilis; high values mean tight binding; most listed sequences are background and not binding sites; double strand, one strand shown;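 also: rank score from −0.5 (least bound) to 0.5 (best bound)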
T1 sequence: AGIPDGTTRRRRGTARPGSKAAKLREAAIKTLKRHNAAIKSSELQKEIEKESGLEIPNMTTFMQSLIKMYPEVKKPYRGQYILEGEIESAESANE

Sequence	binding signal
AATCAACT	0.161 E-score
AGCAATGG	-0.177 E-score
CAACCGCC	-0.352 E-score
CGACACTC	0.0223 E-score
AGCCTGCC	-0.321 E-score
AATAGCAT	0.116 E-score
ACACTTAC	0.026 E-score
ATTGTAAA	0.156 E-score
TACACTAA	0.14 E-score
ATTTTTGA	0.109 E-score
ACCAAGGT	-0.0936 E-score
GTAATGAC	0.11 E-score
AGTACAAA	0.342 E-score
ACAGCGAA	0.0315 E-score
ACAAGGGT	-0.107 E-score
ATTAGGAG	0.00201 E-score
AGAACAGA	0.058 E-score
ACGGGTTA	-0.0652 E-score
AAATGCTG	0.0644 E-score
TAGGTGCA	0.118 E-score
CGGCAGGA	-0.161 E-score
CCCGAATA	-0.14 E-score

Sequence	binding signal
AGGCCTCC	-0.274 E-score
CAGATACA	0.146 E-score
GGCTATCA	-0.0497 E-score
AACGGCCG	-0.0184 E-score
AGTCAGGG	-0.305 E-score
CGCATCAG	-0.0753 E-score
CTAAGTAG	0.275 E-score
AGCACTGC	-0.158 E-score
AACTGCCC	-0.0946 E-score
TAAGGGCA	0.00129 E-score
AATCGAGT	0.0307 E-score
AACGCGGG	-0.179 E-score
ACTCTCGA	0.0551 E-score
ACAACTCT	0.128 E-score
TAACGTCA	0.0342 E-score
CGATACGA	0.069 E-score
ACCCGTGC	-0.276 E-score
CCAGAGAA	0.0844 E-score
CTCAGGGC	-0.348 E-score
GCCTTCCA	-0.211 E-score
AAGCATGC	0.00997 E-score
CCGCTAGG	-0.135 E-score

Sequence	binding signal
CAGGGTTA	-0.042 E-score
GTGCTTTA	-0.0835 E-score
ACTGCAAG	-0.0595 E-score
AGCCACGC	-0.169 E-score
CACATTGA	-0.0361 E-score
ACCAGAAG	0.0767 E-score
CCCTGTAG	-0.0563 E-score
CCCGACCA	-0.229 E-score
TAAACACA	0.213 E-score
CGGCGAAG	0.0966 E-score
TAGCTGCA	-0.091 E-score
CATTCGCC	-0.0525 E-score
CGAGGAGA	-0.179 E-score
ATGACCTG	-0.0486 E-score
CAGTCATC	-0.135 E-score
ATCGGAGA	0.178 E-score
AACATGCG	0.00488 E-score
CATCACTA	0.0773 E-score
GTTTCGGA	-0.0924 E-score
AGCTACTG	0.233 E-score
GTAAAACA	0.175 E-score
CATACGTA	0.173 E-score

Sequence	binding signal
CCCACGAA	-0.287 E-score
TATTATCA	0.169 E-score
AGCGAGGA	-0.251 E-score
AGATGCGG	-0.225 E-score
GCCGGGGA	-0.195 E-score
CAAACGCC	-0.166 E-score
AAGTTGGC	0.135 E-score
CCCTGACA	-0.218 E-score
TAAATGAA	0.0281 E-score
TAGAGACA	0.191 E-score
CTCGGCAA	-0.188 E-score
AGTCAAGA	-0.0899 E-score
CGCGTCAG	-0.282 E-score
ATAGTCTG	0.297 E-score
AGCGCCCT	-0.304 E-score
CATCCGTA	0.0643 E-score
CCAAGACA	-0.143 E-score
ATCGTGCG	0.00105 E-score
CGCCCTGA	-0.325 E-score
CCGACTTC	-0.203 E-score
GATGTCCA	-0.238 E-score
CATATCAC	0.0327 E-score

Sequence	binding signal
AATTACCA	0.33 E-score
GGCCAGCA	-0.0966 E-score
CTGTACCA	-0.0649 E-score
AGAAGGCT	-0.232 E-score
AAAAAATT	0.0765 E-score
TCAGAGAA	-0.108 E-score
CCGGTTCG	-0.187 E-score
CGTTCCCC	-0.316 E-score
CAGGGATG	-0.105 E-score
AGATCCCC	-0.144 E-score
AGAGATTA	0.127 E-score
GCGTCTAC	-0.0576 E-score
CCATCAAA	0.039 E-score
CAAGTCTG	-0.143 E-score
ATAATTGA	0.15 E-score
ATAATAAA	0.321 E-score
CACAATCA	-0.0271 E-score
CTGCTCGA	-0.33 E-score
GCATGAGC	-0.108 E-score
ACGGCAGG	-0.0894 E-score
ATCATCCA	0.112 E-score
GTCAGACA	-0.0182 E-score
